Test results from ChEMBL document CHEMBL4888484, “Replenishing the malaria drug discovery pipeline: Screening and hit evaluation of the MMV Hit Generation Library 1 (HGL1) against asexual blood stage Plasmodium falciparum ,using a nano luciferase reporter read-out” (2022).
Hit rate of the full screen: of about 150,000 compounds, about 540 (0.36%) showed an effect of 50% or more. The list shows a part of the results.

The molecules below were run on Plasmodium falciparum (assay: Primary screen in NF54 nanoGlo assay, in single point, at 2uM, 72h; a lower Z score goes with more inhibition). Settings: timepoint 72 hour.
Format: functional, Erythrocyte
For `C[C@H](Nc1ccc(C(=O)N(C)C)nn1)c1cc(F)ccc1F`, the “% Inhibition” value was -7% and the Z score was 0.84.
For `O=S(=O)(c1cc(Cl)ccc1Cl)N(C1CCCC1)C1CC1`, the “% Inhibition” value was 3% and the Z score was -0.4.
`CCC(C)CN1C(=O)C(Cc2ccccc2)NC12CCN(C(=O)c1ccccc1Cl)CC2` (centres undefined) was tested, and the “% Inhibition” value was -6% and the Z score was 0.91.
`O=C(Cn1cc(C(=O)c2ccncc2)c(=O)c2ccc(F)cc21)Nc1cccc(F)c1` was tested, and the “% Inhibition” value was -4% and the Z score was 0.52.
`O=C(Nc1nc2c(s1)CCCC2)N1C2CCC1CC(Oc1ccccn1)C2` (centres undefined) was tested, and the “% Inhibition” value was -3% and the Z score was 0.36.
For `Cc1nc(-c2nccn2CCNC(=O)c2cccnc2)co1`, the “% Inhibition” value was -2% and the Z score was 0.31.
For `COc1cc2c(cc1OC)[C@H](c1ccccc1Cl)N(C(=O)Cc1ccccc1)CC2`, the “% Inhibition” value was 5% and the Z score was -0.94.
`Cc1nsc(NC2CC2)c1C(=O)NCCN1CCCCC1` was tested, and the “% Inhibition” value was 1% and the Z score was -0.2.
`COCC(NC(=O)c1cnn2ccc(N)cc12)C1CCCOC1` (centres undefined) was tested, and the “% Inhibition” value was 11% and the Z score was -1.99.
In the case of `CN1C[C@@H]2CC[C@H]1CN(C(=O)c1cccc(N3CCS(=O)(=O)CC3)c1)C2`, the “% Inhibition” value is reported as 11% and the Z score is reported as -1.52.
`Cc1nc(-c2ccc(NC(=O)CCc3cccs3)cc2)co1` was tested, and the “% Inhibition” value was -7% and the Z score was 0.99.
For `Cc1nc([C@@H](C#N)NC(=O)OC(C)(C)C)cs1`, the “% Inhibition” value was 34% and the Z score was -3.9.
With `Cc1ccc(NC(=O)c2ccccc2N2C(=O)[C@@H]3Cc4c([nH]c5ccccc45)C(c4ccccc4)N3C2=O)cc1C` (some centres undefined) the “% Inhibition” value was 5% and the Z score was -0.61.
With `CCCN(Cc1c(-c2ccccc2)noc1N1CCCCC1)C(=O)c1ccccc1F` the “% Inhibition” value was -14% and the Z score was 1.38.
With `COc1ccc(OCc2n[nH]c(-c3ccc(C(C)C)[nH]c3=O)n2)cc1` the “% Inhibition” value was -2% and the Z score was 0.19.
For `C[C@H]1CN(C(=O)NCc2nc(C3CC3)no2)CCN1c1ccccc1`, the “% Inhibition” value was 0% and the Z score was -0.08.
`CCN(CCCOc1ccccc1)CC(=O)Nc1c(Cl)cccc1Cl` was tested, and the “% Inhibition” value was -10% and the Z score was 1.31.
In the case of `CC[C@@H](c1cccnc1)N(C)C(=O)c1cnc(N2CCN(C)CC2)nc1C`, the “% Inhibition” value is reported as 1% and the Z score is reported as -0.25.
With `Cc1cc(N)cc(F)c1Br` the “% Inhibition” value was 2% and the Z score was -0.35.
In the case of `Cc1ccc(S(=O)(=O)Oc2ccc(C)cc2-c2nc3ccccc3o2)cc1`, the “% Inhibition” value is reported as -2% and the Z score is reported as 0.26.
In the case of `COC(C)c1cccc(NC(=O)NC(C)CC(C)(C)OC)c1` (centres undefined), the “% Inhibition” value is reported as 1% and the Z score is reported as -0.11.
With `CC(NCC(C1CC1)N(C)C)C(C)(C)C` (centres undefined) the “% Inhibition” value was 3% and the Z score was -0.32.
`COc1cccc(CNC(=O)Cn2cccc2-c2nc(-c3ccc4c(c3)OCO4)no2)c1` was tested, and the “% Inhibition” value was -10% and the Z score was 1.27.
With `CCn1cncc(NC(=O)[C@@H]2CCO[C@H]2C2CC2)c1=O` the “% Inhibition” value was 1% and the Z score was -0.13.
In the case of `CCC(NC(C)C(=O)N(C)C)c1c(C)noc1C` (centres undefined), the “% Inhibition” value is reported as -11% and the Z score is reported as 0.99.
For `O[C@H]1CC[C@H](CN2CCN(c3ccc(F)cc3)CC2)CC1`, the “% Inhibition” value was -25% and the Z score was 2.23.
With `Cc1cccc2c1O[C@H](C(=O)N1CCOc3c1c(C)nn3C)C2` the “% Inhibition” value was 11% and the Z score was -1.57.
In the case of `Cc1cc(NC(=O)C2C3CCC(C3)C2NC(=O)OC(C)(C)C)n(C)n1` (centres undefined), the “% Inhibition” value is reported as -3% and the Z score is reported as 0.35.
In the case of `C(#Cc1ccccc1)C[N+]1(CC#Cc2ccccc2)CCOCC1`, the “% Inhibition” value is reported as 3% and the Z score is reported as -0.23.
`O=C(Nc1ccc(Br)cc1)C1CCN(c2cc(-c3ccc(F)cc3)ncn2)CC1` was tested, and the “% Inhibition” value was 6% and the Z score was -0.74.
`CC(C)[C@H](NC(=O)c1cnn2c1CCC2)c1cnn(C)c1` was tested, and the “% Inhibition” value was -7% and the Z score was 1.4.
With `CCc1ccc(S(=O)(=O)Nc2ccc3c(c2)C(=O)N(CC)c2ccccc2O3)cc1` the “% Inhibition” value was -17% and the Z score was 1.95.
`Cc1cc(C)cc(NC(=O)NC2(CN(C)C)CCC2)c1` was tested, and the “% Inhibition” value was 5% and the Z score was -0.49.
With `Cc1nc(NCC2(O)CCOCC2)nc(C)c1CC(C)C` the “% Inhibition” value was -9% and the Z score was 0.8.
With `c1ccc(CC2(NCc3ncc[nH]3)CCCC2)cc1` the “% Inhibition” value was -4% and the Z score was 0.52.
With `CCNC(=O)C(C)(C)NC(=O)[C@H]1C[C@@H]1c1ccccc1` the “% Inhibition” value was -8% and the Z score was 0.98.
In the case of `Cc1cc(C)cc(NC(=O)N2C[C@H](c3nc(-c4cccnc4)no3)[C@@H](C)C2)c1`, the “% Inhibition” value is reported as -12% and the Z score is reported as 1.43.
`CC[C@H]1CN(CN2C(=O)NC3(CCCCC3)C2=O)CCO1` was tested, and the “% Inhibition” value was -3% and the Z score was 0.47.
With `C[C@@H](Cn1cncn1)N1CCC2(CC1)CN(CCc1ccccc1)C(=O)O2` the “% Inhibition” value was -1% and the Z score was 0.09.
For `CCc1nc(N2CCCC2=O)sc1C(=O)NCc1ccccc1C`, the “% Inhibition” value was -10% and the Z score was 0.89.
For `CCCc1sc(N(C(=O)c2ccc(Cl)cc2Cl)c2ccc(OC)cc2)nc1-c1ccccc1`, the “% Inhibition” value was -9% and the Z score was 1.46.
`Cn1c([C@H]2CCCN(S(C)(=O)=O)C2)nn(CC(=O)NCc2ccc3c(c2)OCO3)c1=O` was tested, and the “% Inhibition” value was -9% and the Z score was 1.33.
